From PMC5062570 (Nature Communications, 2016)
Values joined by “and” are separate entries in the source; they are usually repeats but may differ in a detail not shown here. Equal entries are not always repeated.

How the values were obtained:
[1] = target: PF-7802-labelled proteins in ARPE-19 cells (Homo sapiens, UniProt P05787); settings: protein KRT8 Keratin, type II cytoskeletal 8 (P05787); one column per replicate
[2] = target: PF-7802-labelled proteins in ARPE-19 cells (Homo sapiens, UniProt P35579)
[3] = target: PF-7802-labelled proteins in ARPE-19 cells (Homo sapiens, UniProt P00505); settings: P00505 GOT2 Aspartate aminotransferase, mitochondrial
[4] = target: PF-7802-labelled proteins in ARPE-19 cells (Homo sapiens, UniProt P84098)
[5] = target: PF-7802-labelled proteins in ARPE-19 cells (Homo sapiens, UniProt P34931)
[6] = target: PF-7802-labelled proteins in ARPE-19 cells (Homo sapiens, UniProt Q96L21); settings: protein RPL10L 60S ribosomal protein L10-like, Q96L21
[7] = target: PF-7802-labelled proteins in ARPE-19 cells (Homo sapiens, UniProt P68133)
[8] = target: PF-7802-labelled proteins in ARPE-19 cells (Homo sapiens, UniProt Q14108)
[9] = target: PF-7802-labelled proteins in ARPE-19 cells (Homo sapiens, UniProt P0C0S5); settings: P0C0S5 H2AFZ Histone H2A.Z
[10] = target: PF-7802-labelled proteins in ARPE-19 cells (Homo sapiens, UniProt Q9NR12); settings: protein PDLIM7 PDZ and LIM domain protein 7 (Q9NR12); replicates in separate columns
[11] = target: PF-7802-labelled proteins in ARPE-19 cells (Homo sapiens, UniProt P80723); settings: protein BASP1 Brain acid soluble protein 1 (P80723)
[12] = target: PF-7802-labelled proteins in ARPE-19 cells (Homo sapiens, UniProt P07476); settings: protein IVL Involucrin (P07476); one column per replicate
[13] = target: PF-7802-labelled proteins in ARPE-19 cells (Homo sapiens, UniProt O14880); settings: protein MGST3 Microsomal glutathione S-transferase 3 (O14880); replicates in separate columns
[14] = target: PF-7802-labelled proteins in ARPE-19 cells (Homo sapiens, UniProt P60953); settings: protein CDC42 Cell division control protein 42 homolog (P60953)
[15] = target: PF-7802-labelled proteins in ARPE-19 cells (Homo sapiens, UniProt Q13509); settings: TUBB3 Tubulin beta-3 chain (Q13509)
[16] = target: PF-7802-labelled proteins in ARPE-19 cells (Homo sapiens, UniProt P62820); settings: protein RAB1A Ras-related protein Rab-1A, P62820
[17] = target: PF-7802-labelled proteins in ARPE-19 cells (Homo sapiens, UniProt Q9BVA1); settings: TUBB2B Tubulin beta-2B chain (Q9BVA1)
[18] = target: PF-7802-labelled proteins in ARPE-19 cells (Homo sapiens, UniProt O95831); settings: protein AIFM1 Apoptosis-inducing factor 1, mitochondrial (O95831)
[19] = target: PF-7802-labelled proteins in ARPE-19 cells (Homo sapiens, UniProt P61513)
[20] = target: PF-7802-labelled proteins in ARPE-19 cells (Homo sapiens, UniProt Q5VTJ3); settings: protein KLHDC7A Kelch domain-containing protein 7A (Q5VTJ3); one column per replicate
[21] = target: PF-7802-labelled proteins in ARPE-19 cells (Homo sapiens, UniProt P06702); settings: protein S100A9 Protein S100-A9, P06702
[22] = target: PF-7802-labelled proteins in ARPE-19 cells (Homo sapiens, UniProt P11310); settings: protein ACADM Medium-chain specific acyl-CoA dehydrogenase, mitochondrial (P11310)
[23] = target: PF-7802-labelled proteins in ARPE-19 cells (Homo sapiens, UniProt P61204); settings: protein ARF3 ADP-ribosylation factor 3 (P61204)
[24] = target: PF-7802-labelled proteins in ARPE-19 cells (Homo sapiens, UniProt O43847); settings: protein NRD1 Nardilysin (O43847); replicates in separate columns
[25] = target: PF-7802-labelled proteins in ARPE-19 cells (Homo sapiens, UniProt Q15629); settings: TRAM1 Translocating chain-associated membrane protein 1 (Q15629)
[26] = target: PF-7802-labelled proteins in ARPE-19 cells (Homo sapiens, UniProt O60664); settings: protein PLIN3 Perilipin-3 (O60664); replicates in separate columns
[27] = target: PF-7802-labelled proteins in ARPE-19 cells (Homo sapiens, UniProt Q00765)

Chain of UniProt P35579 (P35579 whole entry): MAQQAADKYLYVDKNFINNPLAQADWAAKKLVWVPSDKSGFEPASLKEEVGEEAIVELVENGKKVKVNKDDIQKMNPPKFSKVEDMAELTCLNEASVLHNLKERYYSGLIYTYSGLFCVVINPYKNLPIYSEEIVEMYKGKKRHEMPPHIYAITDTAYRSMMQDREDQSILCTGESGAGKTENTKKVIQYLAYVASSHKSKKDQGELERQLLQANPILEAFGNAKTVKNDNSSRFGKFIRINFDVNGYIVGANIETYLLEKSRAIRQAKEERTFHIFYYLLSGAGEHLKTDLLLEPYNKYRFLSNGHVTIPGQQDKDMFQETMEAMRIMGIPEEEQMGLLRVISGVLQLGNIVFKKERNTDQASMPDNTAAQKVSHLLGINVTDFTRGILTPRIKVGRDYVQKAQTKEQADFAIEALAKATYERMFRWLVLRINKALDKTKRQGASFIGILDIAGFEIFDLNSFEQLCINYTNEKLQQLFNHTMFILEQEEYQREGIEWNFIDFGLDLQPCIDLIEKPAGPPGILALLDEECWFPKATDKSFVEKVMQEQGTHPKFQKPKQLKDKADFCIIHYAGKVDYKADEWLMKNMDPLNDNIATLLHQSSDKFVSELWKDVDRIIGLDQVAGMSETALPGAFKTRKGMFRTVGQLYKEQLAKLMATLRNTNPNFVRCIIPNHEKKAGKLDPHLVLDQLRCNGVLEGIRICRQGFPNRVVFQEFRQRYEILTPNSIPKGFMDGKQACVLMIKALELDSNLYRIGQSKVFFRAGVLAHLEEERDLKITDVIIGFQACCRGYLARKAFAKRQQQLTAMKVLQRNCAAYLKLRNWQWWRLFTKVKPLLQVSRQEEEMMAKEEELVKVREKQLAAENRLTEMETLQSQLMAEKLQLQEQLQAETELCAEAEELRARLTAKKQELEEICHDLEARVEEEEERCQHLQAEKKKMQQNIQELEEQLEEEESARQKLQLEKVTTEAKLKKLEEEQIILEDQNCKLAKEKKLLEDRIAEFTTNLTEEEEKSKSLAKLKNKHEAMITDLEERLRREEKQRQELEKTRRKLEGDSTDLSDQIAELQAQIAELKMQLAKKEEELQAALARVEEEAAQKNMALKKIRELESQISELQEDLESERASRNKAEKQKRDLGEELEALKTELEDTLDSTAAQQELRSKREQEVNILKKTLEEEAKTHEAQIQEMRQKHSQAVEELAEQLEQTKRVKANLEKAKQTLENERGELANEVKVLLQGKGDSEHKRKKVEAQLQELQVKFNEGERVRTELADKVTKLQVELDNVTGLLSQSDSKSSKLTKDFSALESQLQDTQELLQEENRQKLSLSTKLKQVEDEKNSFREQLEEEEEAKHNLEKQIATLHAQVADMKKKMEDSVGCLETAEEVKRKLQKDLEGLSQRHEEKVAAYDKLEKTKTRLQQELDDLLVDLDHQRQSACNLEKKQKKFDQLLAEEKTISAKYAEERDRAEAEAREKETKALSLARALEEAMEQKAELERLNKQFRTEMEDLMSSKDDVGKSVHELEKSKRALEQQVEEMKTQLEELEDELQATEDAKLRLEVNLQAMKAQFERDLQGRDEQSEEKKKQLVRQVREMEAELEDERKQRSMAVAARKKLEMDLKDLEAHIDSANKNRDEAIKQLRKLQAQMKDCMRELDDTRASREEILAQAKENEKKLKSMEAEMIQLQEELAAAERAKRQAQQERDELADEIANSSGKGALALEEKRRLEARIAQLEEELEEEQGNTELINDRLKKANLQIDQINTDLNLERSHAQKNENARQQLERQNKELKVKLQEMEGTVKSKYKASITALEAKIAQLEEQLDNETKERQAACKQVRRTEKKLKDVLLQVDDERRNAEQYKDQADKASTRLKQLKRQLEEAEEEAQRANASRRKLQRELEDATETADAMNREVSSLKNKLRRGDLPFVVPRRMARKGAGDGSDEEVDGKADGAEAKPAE
Chain of UniProt P34931 (P34931 whole entry): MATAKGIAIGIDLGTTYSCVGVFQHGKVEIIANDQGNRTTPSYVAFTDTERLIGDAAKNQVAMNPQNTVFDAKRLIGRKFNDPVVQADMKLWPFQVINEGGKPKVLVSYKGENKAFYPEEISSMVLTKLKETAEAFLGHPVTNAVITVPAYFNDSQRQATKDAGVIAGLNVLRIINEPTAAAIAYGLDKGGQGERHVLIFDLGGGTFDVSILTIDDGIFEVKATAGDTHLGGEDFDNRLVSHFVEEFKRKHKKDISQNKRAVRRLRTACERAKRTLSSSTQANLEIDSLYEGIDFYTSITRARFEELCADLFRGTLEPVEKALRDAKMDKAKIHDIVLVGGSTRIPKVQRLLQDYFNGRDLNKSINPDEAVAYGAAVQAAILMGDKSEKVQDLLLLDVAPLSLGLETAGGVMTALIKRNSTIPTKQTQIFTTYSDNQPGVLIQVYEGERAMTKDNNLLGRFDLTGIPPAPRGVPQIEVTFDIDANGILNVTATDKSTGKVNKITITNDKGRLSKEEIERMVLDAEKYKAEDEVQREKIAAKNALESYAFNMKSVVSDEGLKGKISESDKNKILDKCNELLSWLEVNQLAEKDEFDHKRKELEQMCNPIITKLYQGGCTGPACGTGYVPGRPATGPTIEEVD
Chain of UniProt Q14108 (Q14108 whole entry): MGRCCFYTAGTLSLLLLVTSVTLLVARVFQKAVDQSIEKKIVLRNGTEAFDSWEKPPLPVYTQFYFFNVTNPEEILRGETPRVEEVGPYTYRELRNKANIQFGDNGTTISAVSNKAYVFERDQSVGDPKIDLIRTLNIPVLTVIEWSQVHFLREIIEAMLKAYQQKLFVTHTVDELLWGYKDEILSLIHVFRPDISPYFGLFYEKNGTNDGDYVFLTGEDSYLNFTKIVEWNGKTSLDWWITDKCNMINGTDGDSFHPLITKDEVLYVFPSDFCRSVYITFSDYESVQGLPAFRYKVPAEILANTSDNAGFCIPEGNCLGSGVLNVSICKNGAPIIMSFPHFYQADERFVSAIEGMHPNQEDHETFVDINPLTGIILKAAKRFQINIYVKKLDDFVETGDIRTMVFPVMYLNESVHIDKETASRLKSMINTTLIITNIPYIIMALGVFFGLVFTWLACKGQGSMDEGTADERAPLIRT
Chain of UniProt P61204 (P61204 whole entry): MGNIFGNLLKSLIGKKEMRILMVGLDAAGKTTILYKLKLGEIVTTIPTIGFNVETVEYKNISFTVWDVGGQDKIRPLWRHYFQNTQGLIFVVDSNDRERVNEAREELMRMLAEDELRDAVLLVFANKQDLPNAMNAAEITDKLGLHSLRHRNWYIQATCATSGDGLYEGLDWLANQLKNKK
Chain of UniProt P05787 (P05787 whole entry): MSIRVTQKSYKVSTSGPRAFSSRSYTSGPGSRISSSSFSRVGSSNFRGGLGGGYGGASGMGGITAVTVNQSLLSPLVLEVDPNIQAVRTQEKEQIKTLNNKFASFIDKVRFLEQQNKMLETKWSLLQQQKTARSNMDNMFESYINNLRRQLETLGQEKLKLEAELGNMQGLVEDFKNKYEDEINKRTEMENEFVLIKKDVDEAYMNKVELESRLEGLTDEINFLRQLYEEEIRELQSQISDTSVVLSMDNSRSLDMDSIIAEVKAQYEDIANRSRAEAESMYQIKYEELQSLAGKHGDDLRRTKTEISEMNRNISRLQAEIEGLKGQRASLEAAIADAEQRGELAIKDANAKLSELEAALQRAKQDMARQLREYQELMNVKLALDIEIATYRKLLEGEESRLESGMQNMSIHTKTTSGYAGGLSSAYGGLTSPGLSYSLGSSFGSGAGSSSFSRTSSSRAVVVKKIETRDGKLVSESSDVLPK
Chain of UniProt Q9NR12 (Q9NR12 whole entry, the tested form may be a part): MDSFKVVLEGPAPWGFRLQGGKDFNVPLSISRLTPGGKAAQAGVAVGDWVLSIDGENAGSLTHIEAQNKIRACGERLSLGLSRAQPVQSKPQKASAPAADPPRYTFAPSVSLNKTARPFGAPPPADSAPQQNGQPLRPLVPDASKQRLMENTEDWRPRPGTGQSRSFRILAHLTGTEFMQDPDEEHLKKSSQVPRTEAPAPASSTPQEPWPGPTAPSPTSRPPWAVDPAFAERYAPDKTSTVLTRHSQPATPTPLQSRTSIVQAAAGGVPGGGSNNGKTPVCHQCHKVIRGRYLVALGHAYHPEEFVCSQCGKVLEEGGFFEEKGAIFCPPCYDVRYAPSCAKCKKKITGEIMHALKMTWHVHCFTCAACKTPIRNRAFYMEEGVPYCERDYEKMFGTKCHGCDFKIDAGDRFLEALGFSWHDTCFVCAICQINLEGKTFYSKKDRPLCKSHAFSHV
Chain of UniProt P60953 (P60953 whole entry): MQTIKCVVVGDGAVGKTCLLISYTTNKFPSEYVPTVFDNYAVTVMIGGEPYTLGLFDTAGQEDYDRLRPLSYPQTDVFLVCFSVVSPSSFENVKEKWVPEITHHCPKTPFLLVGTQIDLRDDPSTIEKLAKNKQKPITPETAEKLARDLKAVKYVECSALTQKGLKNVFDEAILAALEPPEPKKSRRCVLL
Chain of UniProt Q13509 (Q13509 whole entry): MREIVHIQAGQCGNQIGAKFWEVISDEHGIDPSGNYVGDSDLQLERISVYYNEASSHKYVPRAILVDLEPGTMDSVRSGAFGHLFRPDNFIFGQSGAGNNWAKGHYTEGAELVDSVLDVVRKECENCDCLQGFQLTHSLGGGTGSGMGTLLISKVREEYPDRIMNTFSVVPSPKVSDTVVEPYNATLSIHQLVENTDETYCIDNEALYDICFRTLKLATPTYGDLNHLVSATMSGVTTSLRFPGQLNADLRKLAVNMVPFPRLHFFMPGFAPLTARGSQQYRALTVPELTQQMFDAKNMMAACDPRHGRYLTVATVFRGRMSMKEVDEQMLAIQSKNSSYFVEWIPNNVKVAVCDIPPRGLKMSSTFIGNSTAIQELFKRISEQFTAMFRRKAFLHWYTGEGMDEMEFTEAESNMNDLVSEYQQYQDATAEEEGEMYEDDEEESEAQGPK
Chain of UniProt O14880 (O14880 whole entry): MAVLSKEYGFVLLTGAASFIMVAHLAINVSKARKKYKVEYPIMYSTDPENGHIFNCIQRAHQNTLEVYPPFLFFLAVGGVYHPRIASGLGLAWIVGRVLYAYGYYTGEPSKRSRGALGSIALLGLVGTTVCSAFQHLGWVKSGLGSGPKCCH

## CNC1CCN(C(=O)C[C@@H](Cc2ccccc2)C(=O)N[C@@H](CSC)C(=O)N[C@@H](CC2CCCCC2)[C@@H](O)C(=O)OC(C)C)CC1 [CP-108671, reference compound]
[1]
  Median SILAC Ratio (Heavy/Light): 1.812 and 0.814
[2]; P35579 MYH9 Myosin-9
  SILAC ratio (DMSO/CP-108671): 0.55
[2]; protein MYH9 Myosin-9 (P35579), replicates in separate columns
  Median SILAC Ratio (Heavy/Light): 1.87 and 0.9103
[3]
  SILAC ratio (DMSO/CP-108671): 0.90
[4]; P84098 RPL19 60S ribosomal protein L19
  SILAC ratio (DMSO/CP-108671): 0.91
[4]; protein RPL19 60S ribosomal protein L19, P84098
  Median SILAC Ratio (Heavy/Light): 1.248 and 0.8409
[5]; protein HSPA1L Heat shock 70kDa protein 1-like variant (Q53FA3), one column per replicate
  Median SILAC Ratio (Heavy/Light): 1.431 and 0.8416
[5]; tr¦Q53FA3¦Q53FA3_HUMAN HSPA1L Heat shock 70kDa protein 1-like variant
  SILAC ratio (DMSO/CP-108671): 0.73
[6]
  Median SILAC Ratio (Heavy/Light): 1.724
[7]; P68133 ACTA1 Actin, alpha skeletal muscle
  SILAC ratio (DMSO/CP-108671): 0.81
[7]; protein ACTA1 Actin, alpha skeletal muscle (P68133)
  Median SILAC Ratio (Heavy/Light): 1.236
[8]; Q14108 SCARB2 Lysosome membrane protein 2
  SILAC ratio (DMSO/CP-108671): 1.16
[8]; protein SCARB2 Lysosome membrane protein 2, Q14108
  Median SILAC Ratio (Heavy/Light): 1.354 and 0.8603
[9]
  SILAC ratio (DMSO/CP-108671): 0.98
[10]
  Median SILAC Ratio (Heavy/Light): 2.345

## Cc1cc([C@H]2C[C@H]3[C@@H](C)SC(N)=N[C@@]3(c3ccc(F)cc3F)CO2)on1 [PF-9283]
[11]
  Median SILAC Ratio (Heavy/Light): 0.9316
[12]
  Median SILAC Ratio (Heavy/Light): 6.011
[13]
  Median SILAC Ratio (Heavy/Light): 0.4639
[14]
  Median SILAC Ratio (Heavy/Light): 1.688
[15]
  Median SILAC Ratio (Heavy/Light): 1.723
[16]
  Median SILAC Ratio (Heavy/Light): 0.9161
[17]
  Median SILAC Ratio (Heavy/Light): 1.522
[18]
  Median SILAC Ratio (Heavy/Light): 1.067
[19]
  Median SILAC Ratio (Heavy/Light): 0.9932
[20]
  Median SILAC Ratio (Heavy/Light): 0.6479
[21]
  Median SILAC Ratio (Heavy/Light): 43.83
[22]
  Median SILAC Ratio (Heavy/Light): 2.337
[23]
  Median SILAC Ratio (Heavy/Light): 0.6905 and 0.7654
[24]
  Median SILAC Ratio (Heavy/Light): 0.01102
[25]
  Median SILAC Ratio (Heavy/Light): 0.5188
[26]
  Median SILAC Ratio (Heavy/Light): 1.347
[27]
  Median SILAC Ratio (Heavy/Light): 0.783
